Measured values published in patent publication US20200002439A1 (GENSUN BIOPHARMA, published 2020).
Read-outs that look alike come from different tables or passages of the source.

What was measured:
[1] = target: T1, recombinant human VEGF 165 (human, UniProt P15692-4 27-191); assay: cell-based or functional assay
T1 sequence (looked up): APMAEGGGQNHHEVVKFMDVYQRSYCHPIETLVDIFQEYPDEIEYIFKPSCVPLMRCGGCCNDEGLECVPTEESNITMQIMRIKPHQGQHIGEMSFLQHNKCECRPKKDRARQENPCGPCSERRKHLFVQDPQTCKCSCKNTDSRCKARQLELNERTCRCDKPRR

[2] = target: human TGFβ1 (human, UniProt P01137 fragment); assay: cell-based or functional assay
Chain of UniProt P01137 (P01137 279-390 limits assumed): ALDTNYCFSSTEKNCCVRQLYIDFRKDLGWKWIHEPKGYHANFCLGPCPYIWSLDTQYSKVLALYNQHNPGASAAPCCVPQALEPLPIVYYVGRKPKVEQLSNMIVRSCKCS

[3] = target: T2, recombinant human Ang2 (human, UniProt O15123 19-496); assay: blocking ELISA: Ang2 coated on the plate, binding of recombinant human Tie2 is blocked
T2 construct: also called Ang2 (R&D)
T2 sequence (looked up): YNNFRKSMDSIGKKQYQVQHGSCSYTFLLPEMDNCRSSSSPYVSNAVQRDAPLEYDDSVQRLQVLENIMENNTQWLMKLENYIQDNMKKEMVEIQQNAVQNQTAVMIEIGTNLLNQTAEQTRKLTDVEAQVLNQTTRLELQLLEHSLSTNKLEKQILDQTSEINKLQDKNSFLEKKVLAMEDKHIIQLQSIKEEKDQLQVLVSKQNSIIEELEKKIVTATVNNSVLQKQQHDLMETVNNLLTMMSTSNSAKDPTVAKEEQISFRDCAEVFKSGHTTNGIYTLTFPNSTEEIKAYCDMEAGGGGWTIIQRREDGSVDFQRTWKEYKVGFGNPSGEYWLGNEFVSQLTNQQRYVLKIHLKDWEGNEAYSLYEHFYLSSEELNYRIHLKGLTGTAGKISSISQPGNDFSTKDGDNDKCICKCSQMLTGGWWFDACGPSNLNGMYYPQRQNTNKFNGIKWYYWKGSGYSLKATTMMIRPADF
Experimental: IC50 values were determined as the mid-point in the activity curve.

[4] = target: T1, recombinant human VEGF 165; assay: blocking ELISA: VEGF 165 coated on the plate, binding of recombinant human VEGFR-2 is blocked
Experimental: (§1) In brief, 96-well assay plates were coated with 0.5 ug/ml of recombinant human VEGF 165 (R&D) in carbonate-bicarbonate buffer (pH 9.6) at 4° C. overnight followed by blocking with 1% BSA/PBS for 1 hour at room temperature. Serially diluted antibodies were then added to the plate and incubated for 30 minutes at room temperature. […] Followed by washing with Wash Buffer, goat anti-mouse IgG-HRP were added to the plate and incubated for 1 hour at room temperature. […] IC50 values were determined as the mid-point in the activity curve.

[5] = target: T1, recombinant human VEGF 165; assay: as above; remark: listed apart in the source
Experimental: as §1

[6] = target: T3, human PD-1 on transfected CHO-K1 cells (human, UniProt Q15116 25-288); assay: cell-based blocking assay, flow cytometry: binding of FITC labeled human PD-L1-Fc to human PD-1 transfected CHO-K1 cells is blocked
T3 construct: also called Human PD-1 transfected CHO-K1 cells

[7] = target: T3, human PD-1 on transfected CHO-K1 cells; assay: as above; remark: listed apart in the source
T3 sequence (Q15116 25-288 limits assumed): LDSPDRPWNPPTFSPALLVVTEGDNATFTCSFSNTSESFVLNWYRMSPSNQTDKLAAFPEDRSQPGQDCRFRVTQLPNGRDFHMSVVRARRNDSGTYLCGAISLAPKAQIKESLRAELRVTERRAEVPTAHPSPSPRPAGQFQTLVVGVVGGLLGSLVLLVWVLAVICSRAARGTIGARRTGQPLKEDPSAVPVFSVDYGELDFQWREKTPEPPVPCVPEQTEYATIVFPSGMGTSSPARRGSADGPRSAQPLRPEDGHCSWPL

B1: TS-ZPB-5B (other)
heavy: QVQLVQSGAEVKKPGASVKVSCKASGYTFTSYYIHWVRQAPGQGLEWMGWIFPGSGNSKYNENFKGRVTLTADTSTSTVYMELSSLRSEDTAVYYCASETYDYGDYWGQGTLVTVSSASTKGPSVFPLAPCSRSTSESTAALGCLVKDYFPEPVTVSWNSGALTSGVHTFPAVLQSSGLYSLSSVVTVPSSSLGTKTYTCNVDHKPSNTKVDKRV[human IgG4 Fc with S228P (EU numbers) left out]AGGGGSGGGGSGGGGSSDTGRPFVEMYSEIPEIIHMTEGRELVIPCRVTSPEITVTLKKFPLDTLIPDGKRIIWDSRKGFIISEATYKEIGLLTCEATVNGHLYKTNYLTHRQTNTIIDVVLSPSHGIELSVGEKLVLECTARTELNVGIDFNWEYPSSKHQHKKLVNRDLKTQSGSEMKKFLSTLTIDGVTRSDQGLYTCAASSGLMTKKESTFVRVHEKGGGGSGGGGSGGGGSIPPHVQKSVNNDMIVTDNNGAVKFPQLCKFCDVRFSTCDNQKSCMSNCSITSICEKPQEVCVAVWRKNDENITLETVCHDPKLPYHDFILEDAASPKCIMKEKKKPGETFFMCSCSSDECNDNIIFSEEYNTSNPD
light: DIQMTQSPSFLSASVGDRVTITCKASQNVGTNVAWYQQKPGKAPKALIYSASYRYSGVPSRFSGSGSGTEFTLTISSLQPEDFATYYCQQYYSYPYTFGQGTKLEIKRTVAAPSVFIFPPSDEQLKSGTASVVCLLNNFYPREAKVQWKVDNALQSGNSQESVTEQDSKDSTYSLSSTLTLSKADYEKHKVYACEVTHQGLSSPVTKSFNRGEC
- IC50 (read off the curve); luciferase signal of the cell-based VEGF/VEGFR-2 assay [1]: ~0.02 nM
- IC50 (read off the curve); luciferase signal of the TGFβ signaling reporter assay [2]: ~0.05 nM

B2: TS-ZPB-5A (other)
heavy: QVQLVQSGAEVKKPGASVKVSCKASGYTFTSYYIHWVRQAPGQGLEWMGWIFPGSGNSKYNENFKGRVTLTADTSTSTVYMELSSLRSEDTAVYYCASETYDYGDYWGQGTLVTVSSASTKGPSVFPLAPCSRSTSESTAALGCLVKDYFPEPVTVSWNSGALTSGVHTFPAVLQSSGLYSLSSVVTVPSSSLGTKTYTCNVDHKPSNTKVDKRV[human IgG4 Fc with S228P (EU numbers) left out]AGGGGSGGGGSGGGGSSDTGRPFVEMYSEIPEIIHMTEGRELVIPCRVTSPNITVTLKKFPLDTLIPDGKRIIWDSRKGFIISNATYKEIGLLTCEATVNGHLYKTNYLTHRQTNTIIDVVLSPSHGIELSVGEKLVLNCTARTELNVGIDFNWEYPSSKHQHKKLVNRDLKTQSGSEMKKFLSTLTIDGVTRSDQGLYTCAASSGLMTKKNSTFVRVHEKGGGGSGGGGSGGGGSIPPHVQKSVNNDMIVTDNNGAVKFPQLCKFCDVRFSTCDNQKSCMSNCSITSICEKPQEVCVAVWRKNDENITLETVCHDPKLPYHDFILEDAASPKCIMKEKKKPGETFFMCSCSSDECNDNIIFSEEYNTSNPD
light: B1 light
- IC50 (read off the curve); luciferase signal of the cell-based VEGF/VEGFR-2 assay [1]: ~0.02 nM
- IC50 (read off the curve); luciferase signal of the TGFβ signaling reporter assay [2]: ~0.07 nM

B3: TS-ZPT-2(2P16) (other)
chain 1: QVQLVQSGAEVKKPGASVKVSCKASGYTFTTYYIYWVRQAPGQGLEWMGGINPGNGGTNFNEKFKIRVTMTRDTSISTAYMELSSLRSEDTAVYYCARRYHGYDGGLDYWGQGTLVTVSSASTKGPSVFPLAPCSRSTSESTAALGCLVKDYFPEPVTVSWNSGALTSGVHTFPAVLQSSGLYSLSSVVTVPSSSLGTKTYTCNVDHKPSNTKVDKRV[human IgG4 Fc with S228P (EU numbers) left out]GGGGGAQQEECEWDPWTCEHMGSGSATGGSGSTASSGSGSATHQEECEWDPWTCEHMLEGGGGSGGGGSGGGGSSDTGRPFVEMYSEIPEIIHMTEGRELVIPCRVTSPNITVTLKKFPLDTLIPDGKRIIWDSRKGFIISNATYKEIGLLTCEATVNGHLYKTNYLTHRQTNTIIDVVLSPSHGIELSVGEKLVLNCTARTELNVGIDFNWEYPSSKHQHKKLVNRDLKTQSGSEMKKFLSTLTIDGVTRSDQGLYTCAASSGLMTKKNSTFVRVHEK
chain 2: DIVLTQSPASLAVSPGQRATITCRASKSVSTSGFSYIHWYQQKPGQPPKLLIYLASNLESGVPARFSGSGSGTDFTLTINPVEANDTANYYCQHTWELPNTFGGGTKVEIKRTVAAPSVFIFPPSDEQLKSGTASVVCLLNNFYPREAKVQWKVDNALQSGNSQESVTEQDSKDSTYSLSSTLTLSKADYEKHKVYACEVTHQGLSSPVTKSFNRGEC
- IC50 [3]: 0.65 nM
- IC50 [4]: 0.11 nM
- IC50 [5]: 0.17 nM
- IC50 [6]: 4.62 nM

B4: TS-ZPT-5(2P16) (other)
heavy: QVQLVQSGAEVKKPGASVKVSCKASGYTFTTYYIYWVRQAPGQGLEWMGGINPGNGGTNFNEKFKIRVTMTRDTSISTAYMELSSLRSEDTAVYYCARRYHGYDGGLDYWGQGTLVTVSSASTKGPSVFPLAPCSRSTSESTAALGCLVKDYFPEPVTVSWNSGALTSGVHTFPAVLQSSGLYSLSSVVTVPSSSLGTKTYTCNVDHKPSNTKVDKRV[human IgG4 Fc with S228P (EU numbers) left out]GGGGSGGGGSGGGGSSDTGRPFVEMYSEIPEIIHMTEGRELVIPCRVTSPNITVTLKKFPLDTLIPDGKRIIWDSRKGFIISNATYKEIGLLTCEATVNGHLYKTNYLTHRQTNTIIDVVLSPSHGIELSVGEKLVLNCTARTELNVGIDFNWEYPSSKHQHKKLVNRDLKTQSGSEMKKFLSTLTIDGVTRSDQGLYTCAASSGLMTKKNSTFVRVHEKGGGGGAQQEECEWDPWTCEHMGSGSATGGSGSTASSGSGSATHQEECEWDPWTCEHMLE
light: B3 chain 2
- IC50 [3]: 0.4 nM
- IC50 [4]: 0.26 nM
- IC50 [5]: 1.78 nM
- IC50 [7]: 1.3 nM
